Activation data for 82 compounds are collected here from PubChem BioAssay AID1346428 (National Center for Advancing Translational Sciences (NCATS), 2018).

“And” between values parts separate entries of the source, which are not always exact repeats. Identical values can stand only once. Screen size: about 48,000 compounds; about 1,200 (2.5%) were called active. Not shown: some 2% with an inconclusive outcome.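 How the source made its calls: active means activation of at least 60% and not above a set upper limit (about 1 call in 100 departs from these limits); inconclusive means activation of 40% to 60%, or above that upper limit; inactive means activation under 40%.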 This is one part of the list.

The experiment deals with Probable G-protein coupled receptor 32 (Homo sapiens) (UniProt O75388). As to the kind of experiment: qHTS for Agonists of Human Resolvin D1 Receptor DRV1. To be noted: CHO-K1 GPR32 beta-arrestin PathHunter luminescence, 90 min; at 76.9 µM; hits give high values; zero percent set by DMSO-only wells. Put shortly: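 Using DMSO wells as EC0, agonist-induced signal was taken as chemiluminescence from beta-Gal reconstituted upon beta-arrestin recruitment to GPR32 in CHO-K1 cells after 90 min compound treatment.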
Sequence of UniProt O75388 (O75388 whole entry, looked up): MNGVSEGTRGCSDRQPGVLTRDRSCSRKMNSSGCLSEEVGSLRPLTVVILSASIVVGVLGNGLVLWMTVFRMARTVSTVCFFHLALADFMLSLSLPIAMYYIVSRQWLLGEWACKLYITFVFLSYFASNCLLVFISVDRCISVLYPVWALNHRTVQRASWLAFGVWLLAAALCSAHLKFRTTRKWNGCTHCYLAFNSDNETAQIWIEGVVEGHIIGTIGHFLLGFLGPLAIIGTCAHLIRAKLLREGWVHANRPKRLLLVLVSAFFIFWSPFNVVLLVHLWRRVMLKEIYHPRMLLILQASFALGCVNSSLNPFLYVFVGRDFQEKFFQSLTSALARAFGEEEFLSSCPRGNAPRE
A general note: qHTS replaces the single test concentration by a dilution series.
Consider `O=C(COc1cccc(Cl)c1)N1CCC(c2nc3ccccc3o2)CC1`, for which the activation is inactive: 0.0308%.
As to `CC(C)c1ccc(NC(=O)N2CCN(c3ccc(Cl)c(Cl)c3)CC2)cc1`, the activation was inactive: -14.1%.
For `Cc1nc2c(-c3ccccc3)c(C)nn2c(C)c1CCC(=O)NCCc1ccccc1` the value was inactive: 7.22%; for `O=C(NC1CC(=O)N(c2ccc(Cl)cc2)C1)C1CCCC1` (configuration not stated), inactive: -7.81%.
As for `Cc1ccc(N2CCN(C(=O)c3c(C)oc4ncnc(N5CCCCC5)c34)CC2)c(C)c1`, the activation is inactive: 9.13%.
The result for `CCOC(=O)c1c(C)oc2c1cc(NS(=O)(=O)c1ccc(C)cc1)c1ccccc12` reads inactive: 21.5%; that for `NCCc1ccn[nH]1`, inactive: -14.6%.
The result for `CCC(C)NC(=O)c1ccc2c(c1)nc1n2CCCCC1` (configuration not stated) reads inactive: -13%; that for `COc1ccc(NC(=O)CSc2nc3c(oc4ccccc43)c(=O)n2-c2ccccc2)cc1OC`, inactive: -36.1%.
For `CC(C)(C)OC(=O)N1CCC(c2c(C(=O)NCc3ccccc3)cnn2-c2ccc(F)cc2)CC1` the value was inactive: -9.56%; for `CCC(=O)N1c2ccccc2C(C)(c2ccccc2)CC1(C)C` (configuration not stated), inactive: -6.46%.
For `CN1CCN(C(=O)c2ccc3c(c2)N(Cc2ccc(F)cc2)C(=O)c2ccccc2S3=O)CC1` (configuration not stated), the activation was inactive: -22.3%.
For `CCOc1ccccc1NC(=O)c1cc(S(=O)(=O)N2CCOCC2)cn1C` the value was inactive: -13.1%; for `O=C1Nc2cc(Cl)ccc2Oc2ccccc21`, inactive: 2.64%.
`O=C(CSc1nc(-c2ccccc2)no1)N1CCN(c2ccccc2)CC1`: the activation is inactive: -1.55%.
For `Cc1ccc(NC(=O)c2cc(S(=O)(=O)N3CCCCCC3)ccc2F)cc1F`, the activation was inactive: 29.1%.
The result for `CCN1CCc2c(sc(-n3cccc3)c2C(C)NC(=O)Nc2cc(Cl)c(OC)cc2OC)C1` (configuration not stated) reads inactive: -18.1%; that for `CC1(C)CC(=O)c2cc(-c3nc(-c4ccc(Cl)cc4)cs3)c(=O)[nH]c2C1`, inactive: 4.66%; that for `Cc1sc2c(c1C)c(=O)n(Cc1ccccc1)c(=O)n2CC(=O)N(C)c1ccccc1`, inactive: 12.1%.
For `CCCNC(=O)c1cnn2c(C(F)F)cc(-c3ccccc3)nc12` the value was inactive: -1.34%.
For `COc1ccc(CCNc2oc(COc3cccc(C)c3)nc2C#N)cc1OC` the value was active: 111%; for `COc1ccc(S(=O)(=O)NCc2ccc3c(c2)CCN3C(C)=O)cc1OC`, inactive: 7.71%; for `CCOc1ccc(CN2C(=O)c3ccccc3Sc3ccc(C(=O)NCCCN4CCOCC4)cc32)cc1`, inactive: -2.53%.
In the case of `Cc1ccc(NC(=O)CCS(=O)(=O)c2ccc3nc(C)sc3c2)c(C)c1`, the activation is inactive: -13.1%.
For `Nc1ncnc2c1ncn2[C@@H]1O[C@H](COP(=O)(O)O)[C@@H](O)[C@H]1O` the value was inactive: 4.87%; for `O=C(Nc1ccc(Cl)c(Cl)c1)N(Cc1c[nH]c2ccccc12)C1CCCCC1`, inactive: -4.92%.
For `CCOc1ccc(S(=O)(=O)N(CC(=O)NCCc2ccc(OC)cc2)c2ccccc2)cc1` the value was inactive: -2.25%; for `COc1ccccc1N1CCN(c2c(CN3CCCC3)c(=O)oc3ccccc23)CC1`, inactive: -12.2%.
For `CN(C)c1ncc(C(=O)NCc2ccccc2Cl)cn1` the value was inactive: 14.3%; for `COC(=O)c1ccc([C@H]2Nc3ccc(S(=O)(=O)Nc4ccc(F)cc4)cc3[C@H]3C=CC[C@H]32)cc1`, inactive: -17.5%.
In the case of `Cc1ccc(OCC(=O)N(Cc2nc(-c3ccccc3)no2)C(C)C)cc1C`, the activation is inactive: -12.1%.
`Cc1ccc(S(=O)(=O)N2CCCc3cc(NS(=O)(=O)c4ccccc4)ccc32)cc1`: the activation was inactive: -12.5%.
`CCOc1ccc(C(=O)Nc2ccc(NC(=O)c3ccccc3)cc2)cc1Br`: the activation is inactive: -2.48%.
The result for `CCOC(=O)c1ccc(N2CCN(c3ccc(F)cc3)CC2)c(NC(=O)Nc2ccc(CC)cc2)c1` reads inactive: -3.16%; that for `Cc1ccc2[nH]c(=O)c3cc(C(=O)NCc4cccc(Cl)c4)sc3c2c1`, inactive: -11.5%.
Turning to `Cc1cc(OCC(=O)Nc2sc3c(c2C#N)CCC(C)C3)ccc1Cl` (configuration not stated), the activation is inactive: 17.4%.
For the compound `C[N+]12CCC(CC1)C(OC(=O)C(O)(c1ccccc1)c1ccccc1)C2` (configuration not stated), the activation is inactive: 1.52%.
For `CCOC(=O)CNC(=O)Nc1cc(C(=O)NCc2ccc(C(C)C)cc2)ccc1N1CCCC1` the value was inactive: -27%.
The result for `COc1ccccc1-c1noc(CSc2nnc(-c3ccccc3)n2-c2ccc(C)c(C)c2)n1` reads inactive: -23.3%; that for `Cc1cc(C)c(/C=C/c2onc(C)c2S(=O)(=O)N2CCC(C(=O)Nc3cccc(C)c3C)CC2)c(C)c1`, inactive: -5.36%.
The result for `CCOC(=O)c1c(C)oc2nc(C)nc(N(C)Cc3ccccc3)c12` reads inactive: -22%.
For `CC(=O)c1ccc(NC(=O)CSc2nc(-c3ccccc3C)nc3c2c(=O)n(C)c(=O)n3C)cc1`, the activation was inactive: -16.5%.
The result for `O=C(C1CCCN(S(=O)(=O)c2cccc3nonc23)C1)N1CCN(c2cccc(C(F)(F)F)c2)CC1` (configuration not stated) reads inactive: 21.9%.
The result for `CCOc1ccc(C(=O)c2cn(Cc3cccc(OC)c3)c3cc4c(cc3c2=O)OCO4)cc1` reads inactive: -2.67%; that for `Cc1ccc(S(=O)(=O)N2CCCC2C(=O)Nc2ccc(Br)cc2)cc1` (configuration not stated), inactive: 9.86%; that for `O=C(CSc1ncc(-c2ccc(Cl)cc2)[nH]1)Nc1ccccc1F`, inactive: -21.9%.
For `COc1cccc(-c2ccc3c(N)c(C(=O)c4ccc(F)cc4)sc3n2)c1` the value was inactive: -5.11%; for `COc1ccc(CNc2ncnc3c2cnn3-c2ccc(Cl)cc2)cc1`, inactive: 5.38%.
For the compound `CCOC(=O)c1c(C)oc2nc(C)nc(NCC3CCN(Cc4ccc(F)cc4)CC3)c12`, the activation is inactive: -7.08%.
For `COc1ccc(Nc2ccc3cc(S(=O)(=O)N4CCCC4)ccc3n2)cc1OC` the value was inactive: -26%; for `Cc1ccc(CSC2=Nc3ccccc3C3=NC(CCC(=O)NCc4cccs4)C(=O)N23)c(C)c1` (configuration not stated), inactive: -8.12%.
On to `O=C(Nc1ccc(Cl)c(-c2nc3ccccc3o2)c1)c1cccc2c(Cl)cccc12`, for which the activation is inactive: -7.02%.
The result for `Cc1cc(N2CCN(C)CC2)nc2ccc(NC(=O)Nc3ccc(F)cc3F)cc12` reads inactive: -2.61%.
The result for `CCOC(=O)c1ccc(N2CCN(c3cc(Cl)ccc3C)CC2)c(NC(=O)Nc2ccc(OCC)cc2)c1` reads inactive: -11.1%; that for `CCC(Oc1ccccc1)C(=O)N1CCN(Cc2cc(=O)n3nc(-c4cccc(C)c4)sc3n2)CC1` (configuration not stated), active: 60.7%.
For `Fc1ccc(-c2nc3c4c(-c5ccccc5)c(-c5ccccc5)oc4ncn3n2)cc1` the value was inactive: -5.8%.
As to `CCC(=O)O[C@H]1[C@H](O[C@@H]2[C@@H](C)[C@H](O[C@H]3C[C@@](C)(OC)[C@@H](O)[C@H](C)O3)[C@@H](C)C(=O)O[C@H](CC)[C@@](C)(O)[C@H](O)[C@@H](C)C(=O)[C@H](C)C[C@@]2(C)O)O[C@H](C)C[C@@H]1N(C)C`, the activation is inactive: -12.9%.
Take `COc1cc(Cl)c(NC(=O)CC(C)S(=O)(=O)c2cc3c(cc2C)NC(=O)CO3)c(OC)c1` (configuration not stated): the activation was inactive: 20.8%.
The result for `Cc1ccc(Cl)c(OCC(O)CNC(C)(C)C)c1` (configuration not stated) reads inactive: 18.3%; that for `Cc1ccc(-n2c(=O)c3c(c4cc(C)ccc4n3C)n(CC(=O)NCC3CCCO3)c2=O)cc1` (configuration not stated), inactive: 12.7%.
The result for `Cc1ccc(NS(=O)(=O)c2c(C)nc3sccn3c2=O)c(Cl)c1` reads inactive: 2.96%; that for `Cc1ccc(NC(=O)CSc2nncn3c2cc2sccc23)cc1F`, inactive: -15.7%; that for `Cc1nn(-c2ccc(N3CCCC3)nn2)c(C)c1CCC(=O)Nc1ccccc1`, inactive: -11.8%.
For `CCCCOC(=O)c1ccc(NC2=NS(=O)(=O)c3ccccc32)cc1` the value was inactive: -4.57%; for `Cc1cccc(NC(=O)CCn2nc(C)c3c(C)n(-c4ccccc4)nc3c2=O)c1C`, inactive: -2.7%.
Turning to `CC(C)c1ccc(NC(=O)c2cc(S(=O)(=O)N3CCc4ccccc4C3)ccc2F)cc1`, the activation is inactive: -1.66%.
For `Cc1ccc(-c2nc3n(n2)C(=O)CC(c2ccc(C)cc2)S3)cc1` (configuration not stated) the value was inactive: -8.99%; for `COc1ccc(/C=C(\C#N)c2nc3ccccc3c(=O)[nH]2)cc1OC`, inactive: -12.3%; for `COc1ccccc1CNC(=O)COCc1cc(-c2ccc3c(c2)OCO3)on1`, inactive: -10.2%.
For `CCOc1ccc(S(=O)(=O)Nc2ccc3oc4c(c3c2)CC(C)CC4)cc1` (configuration not stated) the value was inactive: 36.5%; for `COc1cccc(CNS(=O)(=O)c2c(C(=O)N3CCC(C)CC3)c(C)n(C)c2C)c1`, inactive: -20.1%; for `O=C(COc1ccc(F)cc1)OCc1cc(=O)n2nc(-c3cccs3)sc2n1`, inactive: 20.3%.
The result for `CC(C)CN(CC(C)C)CC(O)Cn1cc(/C=C/C(=O)c2ccccc2)c2ccccc21` (configuration not stated) reads inactive: 8.61%.
`COc1cc(NS(=O)(=O)c2c(C)nc3sc(C)c(C)n3c2=O)cc(OC)c1`: the activation was inactive: -2.6%.
As for `CCc1ccc(NC(=O)C2=CC(c3cccs3)=NS(=O)(=O)N2C)cc1`, the activation was inactive: -9.83%.
On to `NC(N)=N/N=C/c1c(Cl)cccc1Cl`, for which the activation was inactive: 19.2% and inactive: 8.27%.
For `COc1ccc(C(=O)NCc2ccc3c(c2)CCN3C(=O)c2ccc(F)cc2)cc1` the value was inactive: -13.4%.
For `CCOc1ccccc1CNC(=O)Cn1nc(N2CCN(c3ccccc3)CC2)ccc1=O`, the activation is active: 61.3%.
The result for `COc1ccc(C)c2sc(NC(=O)c3ccc(S(=O)(=O)N4CCCC4)cc3)nc12` reads inactive: -7.6%; that for `CC1CCN(S(=O)(=O)c2ccc3c(c2)N(CC(=O)NCC(C)c2ccccc2)C(=O)CO3)CC1` (configuration not stated), inactive: -21.6%; that for `Cc1c(C(=O)OCc2ccccc2)[nH]c2c1C(=O)CC(c1ccc(Cl)cc1)C2` (configuration not stated), inactive: 24.1%.
The result for `O=C(NCc1ccc(Cl)cc1)NC1COc2ccccc2C1` (configuration not stated) reads inactive: -12.4%.
